# Measured values from the supplement of paper PMC11876631.
# ± gives the standard deviation of the averaged measurements. Laboratory Escherichia coli strains with one amino-acid change in an essential protein, pooled on minimal glucose agar with carbenicillin or gentamicin at twice the control MIC (plus kanamycin and chloramphenicol for the plasmids), 48 h. Fold change of barcode share against drug-free plates; higher = less susceptible. Active = above 20 in both replicates (the paper's putatively resistant). '<' = one read or none on drug, '>' = one read or none on a drug-free plate. Shares are relative, so most strains fall below 1 when a few take over. Listed are strains with at least 15 reads on both drug-free plates, and hits; most hits rest on fewer reference reads. Replicate rank correlation about 0.5. Edits are read from barcodes.
# Molecular target: Escherichia coli (laboratory strain)
# Experiment: barcode share on antibiotic plates over drug-free plates; higher = less susceptible
# Procedure: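 A pool of E. coli strains, each edited to carry one amino-acid change in an essential protein, was grown for 48 h on minimal glucose agar with or without antibiotic; strain barcodes were sequenced; mean of two replicates.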
# [1] = antibiotic: carbenicillin, 2× MIC (3.1 µg/mL)
# [2] = antibiotic: gentamicin, 2× MIC (MIC 0.45 µg/mL)
Protein,fold change of barcode share [1],fold change of barcode share [2]
coaD L113A (protein) MQKRAIYPGTFDPITNGHIDIVTRATQMFDHVILAIAASPSKKPMFTLEERVALAQQATAHLGNVEVVGFSDLMANFARNQHATVLIRGLRAVADFEYEMQLAHMNRHLMPEAESVFLMPSKEWSFISSSLVKEVARHQGDVTHFLPENVHQALMAKLA,0.231 ± 0.053,< 0.00618
coaD L34D (protein) MQKRAIYPGTFDPITNGHIDIVTRATQMFDHVIDAIAASPSKKPMFTLEERVALAQQATAHLGNVEVVGFSDLMANFARNQHATVLIRGLRAVADFEYEMQLAHMNRHLMPELESVFLMPSKEWSFISSSLVKEVARHQGDVTHFLPENVHQALMAKLA,0.184 ± 0.091,< 0.0111
coaD L86P (protein) MQKRAIYPGTFDPITNGHIDIVTRATQMFDHVILAIAASPSKKPMFTLEERVALAQQATAHLGNVEVVGFSDLMANFARNQHATVPIRGLRAVADFEYEMQLAHMNRHLMPELESVFLMPSKEWSFISSSLVKEVARHQGDVTHFLPENVHQALMAKLA,0.299 ± 0.066,< 0.00823
coaD L34W (protein) MQKRAIYPGTFDPITNGHIDIVTRATQMFDHVIWAIAASPSKKPMFTLEERVALAQQATAHLGNVEVVGFSDLMANFARNQHATVLIRGLRAVADFEYEMQLAHMNRHLMPELESVFLMPSKEWSFISSSLVKEVARHQGDVTHFLPENVHQALMAKLA,0.178 ± 0.036,< 0.00847
coaD L34A (protein) MQKRAIYPGTFDPITNGHIDIVTRATQMFDHVIAAIAASPSKKPMFTLEERVALAQQATAHLGNVEVVGFSDLMANFARNQHATVLIRGLRAVADFEYEMQLAHMNRHLMPELESVFLMPSKEWSFISSSLVKEVARHQGDVTHFLPENVHQALMAKLA,0.323 ± 0.05,< 0.0152
coaD L113Q (protein) MQKRAIYPGTFDPITNGHIDIVTRATQMFDHVILAIAASPSKKPMFTLEERVALAQQATAHLGNVEVVGFSDLMANFARNQHATVLIRGLRAVADFEYEMQLAHMNRHLMPEQESVFLMPSKEWSFISSSLVKEVARHQGDVTHFLPENVHQALMAKLA,0.275 ± 0.063,< 0.00561
coaD I33Q (protein) MQKRAIYPGTFDPITNGHIDIVTRATQMFDHVQLAIAASPSKKPMFTLEERVALAQQATAHLGNVEVVGFSDLMANFARNQHATVLIRGLRAVADFEYEMQLAHMNRHLMPELESVFLMPSKEWSFISSSLVKEVARHQGDVTHFLPENVHQALMAKLA,0.268 ± 0.067,< 0.00932
coaD L34Q (protein) MQKRAIYPGTFDPITNGHIDIVTRATQMFDHVIQAIAASPSKKPMFTLEERVALAQQATAHLGNVEVVGFSDLMANFARNQHATVLIRGLRAVADFEYEMQLAHMNRHLMPELESVFLMPSKEWSFISSSLVKEVARHQGDVTHFLPENVHQALMAKLA,0.163 ± 0.022,< 0.00519
coaD I33W (protein) MQKRAIYPGTFDPITNGHIDIVTRATQMFDHVWLAIAASPSKKPMFTLEERVALAQQATAHLGNVEVVGFSDLMANFARNQHATVLIRGLRAVADFEYEMQLAHMNRHLMPELESVFLMPSKEWSFISSSLVKEVARHQGDVTHFLPENVHQALMAKLA,0.33 ± 0.25,0.0103 ± 0.0035
coaD L86A (protein) MQKRAIYPGTFDPITNGHIDIVTRATQMFDHVILAIAASPSKKPMFTLEERVALAQQATAHLGNVEVVGFSDLMANFARNQHATVAIRGLRAVADFEYEMQLAHMNRHLMPELESVFLMPSKEWSFISSSLVKEVARHQGDVTHFLPENVHQALMAKLA,0.291 ± 0.054,0.00392 ± 0.0023
coaD I33A (protein) MQKRAIYPGTFDPITNGHIDIVTRATQMFDHVALAIAASPSKKPMFTLEERVALAQQATAHLGNVEVVGFSDLMANFARNQHATVLIRGLRAVADFEYEMQLAHMNRHLMPELESVFLMPSKEWSFISSSLVKEVARHQGDVTHFLPENVHQALMAKLA,0.292 ± 0.067,< 0.00546
coaD L86Q (protein) MQKRAIYPGTFDPITNGHIDIVTRATQMFDHVILAIAASPSKKPMFTLEERVALAQQATAHLGNVEVVGFSDLMANFARNQHATVQIRGLRAVADFEYEMQLAHMNRHLMPELESVFLMPSKEWSFISSSLVKEVARHQGDVTHFLPENVHQALMAKLA,10 ± 8.4,< 0.00429
coaD I33D (protein) MQKRAIYPGTFDPITNGHIDIVTRATQMFDHVDLAIAASPSKKPMFTLEERVALAQQATAHLGNVEVVGFSDLMANFARNQHATVLIRGLRAVADFEYEMQLAHMNRHLMPELESVFLMPSKEWSFISSSLVKEVARHQGDVTHFLPENVHQALMAKLA,0.235 ± 0.2,< 0.00794
accD V120A (protein) MSWIERIKSNITPTRKASIPEGVWTKCDSCGQVLYRAELERNLEVCPKCDHHMRMTARNRLHSLLDEGSLVELGSELEPKDVLKFRDSKKYKDRLASAQKETGEKDALVVMKGTLYGMPAVAAAFEFAFMGGSMGSVVGARFVRAVEQALEDNCPLICFSASGGARMQEALMSLMQMAKTSAALAKMQERGLPYISVLTDPTMGGVSASFAMLGDLNIAEPKALIGFAGPRVIEQTVREKLPPGFQRSEFLIEKGAIDMIVRRPEMRLKLASILAKLMNLPAPNPEAPREGVVVPPVPDQEPEA,0.48 ± 0.042,< 0.00394
accD V120W (protein) MSWIERIKSNITPTRKASIPEGVWTKCDSCGQVLYRAELERNLEVCPKCDHHMRMTARNRLHSLLDEGSLVELGSELEPKDVLKFRDSKKYKDRLASAQKETGEKDALVVMKGTLYGMPWVAAAFEFAFMGGSMGSVVGARFVRAVEQALEDNCPLICFSASGGARMQEALMSLMQMAKTSAALAKMQERGLPYISVLTDPTMGGVSASFAMLGDLNIAEPKALIGFAGPRVIEQTVREKLPPGFQRSEFLIEKGAIDMIVRRPEMRLKLASILAKLMNLPAPNPEAPREGVVVPPVPDQEPEA,0.555 ± 0.12,–
accD V120Q (protein) MSWIERIKSNITPTRKASIPEGVWTKCDSCGQVLYRAELERNLEVCPKCDHHMRMTARNRLHSLLDEGSLVELGSELEPKDVLKFRDSKKYKDRLASAQKETGEKDALVVMKGTLYGMPQVAAAFEFAFMGGSMGSVVGARFVRAVEQALEDNCPLICFSASGGARMQEALMSLMQMAKTSAALAKMQERGLPYISVLTDPTMGGVSASFAMLGDLNIAEPKALIGFAGPRVIEQTVREKLPPGFQRSEFLIEKGAIDMIVRRPEMRLKLASILAKLMNLPAPNPEAPREGVVVPPVPDQEPEA,0.678 ± 0.24,0.00666 ± 0.0011
cdsA L221D (protein) MLKYRLISAFVLIPVVIAALFLLPPVGFAIVTLVVCMLAAWEWGQLSGFTTRSQRVWLAVLCGLLLALMLFLLPEYHRNIHQPLVEISLWASLGWWIVALLLVLFYPGSAAIWRNSKTLRLIFGVLTIVPFFWGMLALRAWHYDENHYSGAIWLLYVMILVWGADSGAYMFGKLFGKHKLAPKVSPGKTWQGFIGGLATAAVISWGYGMWANLDVAPVTLDICSIVAALASVLGDLTESMFKREAGIKDSGHLIPGHGGILDRIDSLTAAVPVFACLLLLVFRTL,0.343 ± 0.058,< 0.0106
cdsA L221P (protein) MLKYRLISAFVLIPVVIAALFLLPPVGFAIVTLVVCMLAAWEWGQLSGFTTRSQRVWLAVLCGLLLALMLFLLPEYHRNIHQPLVEISLWASLGWWIVALLLVLFYPGSAAIWRNSKTLRLIFGVLTIVPFFWGMLALRAWHYDENHYSGAIWLLYVMILVWGADSGAYMFGKLFGKHKLAPKVSPGKTWQGFIGGLATAAVISWGYGMWANLDVAPVTLPICSIVAALASVLGDLTESMFKREAGIKDSGHLIPGHGGILDRIDSLTAAVPVFACLLLLVFRTL,0.246 ± 0.058,0.00679 ± 0.0042
cdsA L236A (protein) MLKYRLISAFVLIPVVIAALFLLPPVGFAIVTLVVCMLAAWEWGQLSGFTTRSQRVWLAVLCGLLLALMLFLLPEYHRNIHQPLVEISLWASLGWWIVALLLVLFYPGSAAIWRNSKTLRLIFGVLTIVPFFWGMLALRAWHYDENHYSGAIWLLYVMILVWGADSGAYMFGKLFGKHKLAPKVSPGKTWQGFIGGLATAAVISWGYGMWANLDVAPVTLLICSIVAALASVLGDATESMFKREAGIKDSGHLIPGHGGILDRIDSLTAAVPVFACLLLLVFRTL,0.716 ± 0.72,–
